Our source for the Kd, koff and kon values is patent US20250333508A1 (ZHEJIANG NANOMAB TECHNOLOGY CENTER, published 2025).

T1: human CTLA-4 his tag antigen (human, UniProt P16410 36-161)
T1 construct: Bought (ACRO Biosystems); also called CTLA-4. his tag protein (human); not shown: His tag
T1 sequence (looked up): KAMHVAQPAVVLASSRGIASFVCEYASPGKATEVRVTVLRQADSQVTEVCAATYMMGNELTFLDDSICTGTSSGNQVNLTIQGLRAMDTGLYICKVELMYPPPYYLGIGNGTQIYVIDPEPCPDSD

B1: NGS-16-z1 (Fc fusion)
chain: EVQLVESGGGLVQPGGSLRLSCAASGGTLDYWSIGWFRQAPGKEREEVSCISGTGLRTNYADSVKGRFTISRDNSKNTVYLQMNSLRAEDTAVYYCTGKLLHPSLWSACANEYDLWGQGTQVTVSS[skipping human IgG4 Fc with S228P (EU numbers)]
notes: Format in the assay not restated
B2: NGS-16-z6 (Fc fusion)
chain: B1 chain with I70V, T78S, Y80I, A92G
notes: as for B1
B3: NGS-16-z9 (Fc fusion)
chain: B1 chain with A23E, A92G
notes: as for B1
B4: NGS-16-z11 (Fc fusion)
chain: B1 chain with A23E, I70V, Y80I, A92G
notes: as for B1
B5: NGS-16-z5 (Fc fusion)
chain: B1 chain with I70V, Y80I, A92G
notes: as for B1
B6: NGS-16-z8 (Fc fusion)
chain: B1 chain with A23E, Y80I
notes: as for B1
B7: NGS-16-z7 (Fc fusion)
chain: B1 chain with A23E
notes: as for B1
B8: NGS-16-z4 (Fc fusion)
chain: B1 chain with Y80I, A92G
notes: as for B1
B9: NGS-16-z3 (Fc fusion)
chain: B1 chain with A92G
notes: as for B1
B10: NGS-16-z10 (Fc fusion)
chain: B1 chain with A23E, Y80I, A92G
notes: as for B1
B11: NB-879-z1 (Fc fusion)
chain: EVQLVESGGGLVQPGGSLRLSCAASGDTLESFAVGWFRQAPGKEREELSCIGRTGEFTDYPGSVKGRFTISRDNSKNTVYLQMNSLRAEDTAVYYCAAERLVFHLCSLSEYDYDTWGQGTQVTVSS[skipping human IgG4 Fc with S228P (EU numbers)]
notes: as for B1
B12: NB-879-z3 (Fc fusion)
chain: B11 chain with S71T
notes: as for B1
B13: NB-879-z4 (Fc fusion)
chain: B11 chain with S49A
notes: as for B1
B14: NB-879-z5 (Fc fusion)
chain: B11 chain with S49A, S75A
notes: as for B1
B15: NB-879-z6 (Fc fusion)
chain: B11 chain with S49A, S71T
notes: as for B1
B16: NB-879-z2 (Fc fusion)
chain: B11 chain with S75A
notes: as for B1
B17: NGS-12-z2 (Fc fusion)
chain: EVQLVESGGGLVQPGGSLRLSCAASGFSSDYYDIGWFRQDPGKEREMVSCIRSSGGSTKYADSVKGRFTISRDNSKNTVYLQMNSLRAEDTAVYYCGLAPISPVHAVCNQHYFGYWGQGTRVTVSS[skipping human IgG4 Fc with S228P (EU numbers)]
notes: as for B1
B18: NGS-12-z3 (Fc fusion)
chain: B17 chain with D40A, G42E
notes: as for B1
B19: NGS-12-z5 (Fc fusion)
chain: B17 chain with G42E, R87E
notes: as for B1
B20: NGS-12-z4 (Fc fusion)
chain: B17 chain with G42E
notes: as for B1
B21: NB-27-z1 (Fc fusion)
chain: EVQLVESGGGLVQPGGSLRLSCAASGSTLDPFVIGWFRQAPGKERETVSCINRSRTSYADSVKGRFTISRDNSKNTVYLQMNSLRAEDTAVYYCAASPDKPFYTDQTMCNKHYYGYWTQGTQVTVSS[skipping human IgG4 Fc with S228P (EU numbers)]
notes: as for B1
B22: NB-27-z10 (Fc fusion)
chain: B21 chain with E44G
notes: as for B1
B23: NB-27-z2 (Fc fusion)
chain: B21 chain with T76M
notes: as for B1
B24: NB-27-z6 (Fc fusion)
chain: B21 chain with S49A, S73A
notes: as for B1
B25: NB-27-z3 (Fc fusion)
chain: B21 chain with S73A
notes: as for B1
B26: NB-27-z7 (Fc fusion)
chain: B21 chain with S49A, S73A, T76M
notes: as for B1

Residue numbers refer to the chain shown, from its start.

The target in this assay is T1, human CTLA-4 his tag antigen. Briefly: SPR, Ab on protein A, CTLA-4.His in flow.
B1 returned a Kd of 3.75 nM, an off-rate constant (koff) of 0.00473 s⁻¹ and a kon of 1.26e+06 M⁻¹ s⁻¹.
The corresponding values for B2 are 0.476 nM, 0.0002 s⁻¹ and 420000 M⁻¹ s⁻¹.
The molecule B3 displayed a Kd of 3.98 nM, a koff of 0.00617 s⁻¹ and an association rate constant (kon) of 1.55e+06 M⁻¹ s⁻¹.
Taken in the same sequence, the figures for B4 were 0.429 nM, 0.00045 s⁻¹ and 1.05e+06 M⁻¹ s⁻¹.
For B5, the affinity, expressed as Kd, was 0.466 nM; the koff came to 0.00027 s⁻¹; the kon was determined as 580000 M⁻¹ s⁻¹.
Take B6: the Kd was 0.533 nM, the koff was determined as 0.00057 s⁻¹ and the kon came out at 1.07e+06 M⁻¹ s⁻¹.
Taken in the same sequence, the figures for B7 were 4.86 nM, 0.00676 s⁻¹ and 1.39e+06 M⁻¹ s⁻¹.
Molecule B8 yielded a Kd of 0.61 nM, a koff of 0.00036 s⁻¹ and a kon of 590000 M⁻¹ s⁻¹.
B9 came in with a Kd of 2.82 nM, a koff of 0.00305 s⁻¹ and a kon of 1.08e+06 M⁻¹ s⁻¹.
The corresponding values for B10 are 0.602 nM, 0.00065 s⁻¹ and 1.08e+06 M⁻¹ s⁻¹.
The corresponding values for B11 are 17.6 nM, 0.00302 s⁻¹ and 172000 M⁻¹ s⁻¹.
Taken in the same sequence, the figures for B12 were 18.2 nM, 0.00317 s⁻¹ and 174000 M⁻¹ s⁻¹.
For B13, the affinity, expressed as Kd, was 17.1 nM; the koff came out at 0.00345 s⁻¹; the kon came out at 202000 M⁻¹ s⁻¹.
The corresponding values for B14 are 16.9 nM, 0.00318 s⁻¹ and 188000 M⁻¹ s⁻¹.
Taken in the same sequence, the figures for B15 were 20.7 nM, 0.0033 s⁻¹ and 160000 M⁻¹ s⁻¹.
In the case of B16, the Kd was 18 nM, the koff was found to be 0.00307 s⁻¹ and the kon was determined as 171000 M⁻¹ s⁻¹.
The corresponding values for B17 are 1.8 nM, 0.00027 s⁻¹ and 150000 M⁻¹ s⁻¹.
B18 had a dissociation constant (Kd) of 1.68 nM, a koff of 0.00032 s⁻¹ and a kon of 190000 M⁻¹ s⁻¹.
In turn, B19 showed an equilibrium dissociation constant (Kd) of 1.16 nM, a koff of 0.00029 s⁻¹ and a kon of 250000 M⁻¹ s⁻¹.
The corresponding values for B20 are 1.65 nM, 0.00033 s⁻¹ and 200000 M⁻¹ s⁻¹.
Taken in the same sequence, the figures for B21 were 1.14 nM, 0.000455 s⁻¹ and 399000 M⁻¹ s⁻¹.
For the molecule B22, the Kd was determined as 1.42 nM, the koff is 0.000376 s⁻¹ and the kon was 265000 M⁻¹ s⁻¹.
The corresponding values for B23 are 0.943 nM, 0.000345 s⁻¹ and 366000 M⁻¹ s⁻¹.
The corresponding values for B24 are 1.31 nM, 0.000339 s⁻¹ and 259000 M⁻¹ s⁻¹.
Taken in the same sequence, the figures for B25 were 1.12 nM, 0.000381 s⁻¹ and 341000 M⁻¹ s⁻¹.
In turn, B26 showed a Kd of 1.17 nM, a koff of 0.000305 s⁻¹ and a kon of 261000 M⁻¹ s⁻¹.
